Test results reported in patent publication US20200085917A1 (UNIVERSITY OF PITTSBURGH OF THE COMMONWEALTH SYSTEM OF …, published 2020).

Experiments:
Assay in all cases: GST pull-down, LC-MS/MS
Rtn1_IPI:IPI00395193.1 = biological target: T1, Rtn1_IPI:IPI00395193.1 (mouse, UniProt Q8K0T0 1-780, limits assumed)
T1 sequence (looked up): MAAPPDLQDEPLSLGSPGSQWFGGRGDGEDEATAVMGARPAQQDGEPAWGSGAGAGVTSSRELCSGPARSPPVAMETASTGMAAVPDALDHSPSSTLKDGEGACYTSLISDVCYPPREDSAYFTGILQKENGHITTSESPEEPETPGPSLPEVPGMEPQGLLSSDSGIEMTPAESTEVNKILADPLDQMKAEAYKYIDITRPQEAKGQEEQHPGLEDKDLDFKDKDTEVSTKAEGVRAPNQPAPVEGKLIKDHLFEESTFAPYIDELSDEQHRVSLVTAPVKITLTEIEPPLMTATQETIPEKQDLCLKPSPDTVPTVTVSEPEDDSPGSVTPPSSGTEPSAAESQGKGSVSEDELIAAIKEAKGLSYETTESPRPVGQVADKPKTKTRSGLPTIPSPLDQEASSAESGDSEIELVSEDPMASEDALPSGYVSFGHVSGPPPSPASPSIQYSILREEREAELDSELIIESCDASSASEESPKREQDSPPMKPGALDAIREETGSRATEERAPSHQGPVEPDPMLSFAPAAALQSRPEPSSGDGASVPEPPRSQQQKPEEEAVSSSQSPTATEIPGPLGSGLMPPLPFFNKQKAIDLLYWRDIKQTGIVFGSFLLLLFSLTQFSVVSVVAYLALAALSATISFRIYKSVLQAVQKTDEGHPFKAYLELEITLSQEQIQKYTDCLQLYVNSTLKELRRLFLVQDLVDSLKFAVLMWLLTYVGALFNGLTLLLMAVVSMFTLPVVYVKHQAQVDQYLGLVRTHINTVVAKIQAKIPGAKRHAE

Acsl6_IPI:IPI00123390.8 = biological target: T2, Acsl6_IPI:IPI00123390.8 (mouse, UniProt Q91WC3 1-697, limits assumed)
T2 sequence (looked up): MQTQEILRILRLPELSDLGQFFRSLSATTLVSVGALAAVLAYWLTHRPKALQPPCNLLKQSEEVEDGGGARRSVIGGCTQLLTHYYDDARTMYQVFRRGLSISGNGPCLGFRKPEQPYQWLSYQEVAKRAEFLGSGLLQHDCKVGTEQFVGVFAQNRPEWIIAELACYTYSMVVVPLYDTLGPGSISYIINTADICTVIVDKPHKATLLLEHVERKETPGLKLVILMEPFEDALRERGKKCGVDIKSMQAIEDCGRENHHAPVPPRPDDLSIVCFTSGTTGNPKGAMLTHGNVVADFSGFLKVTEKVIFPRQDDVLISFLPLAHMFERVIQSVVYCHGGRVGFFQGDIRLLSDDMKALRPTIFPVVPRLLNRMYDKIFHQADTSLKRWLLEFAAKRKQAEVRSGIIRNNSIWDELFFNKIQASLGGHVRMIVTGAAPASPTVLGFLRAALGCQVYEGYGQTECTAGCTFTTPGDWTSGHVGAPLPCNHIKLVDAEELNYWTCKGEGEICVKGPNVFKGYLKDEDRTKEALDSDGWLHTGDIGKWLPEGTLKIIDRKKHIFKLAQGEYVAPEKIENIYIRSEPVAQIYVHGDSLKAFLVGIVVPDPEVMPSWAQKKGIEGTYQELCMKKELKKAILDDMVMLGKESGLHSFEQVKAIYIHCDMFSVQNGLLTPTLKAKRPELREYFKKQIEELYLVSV

Asah1_IPI:IPI00125266.1 = biological target: T3, Asah1_IPI:IPI00125266.1 (mouse, UniProt Q9WV54 19-394, limits assumed)
T3 sequence (looked up): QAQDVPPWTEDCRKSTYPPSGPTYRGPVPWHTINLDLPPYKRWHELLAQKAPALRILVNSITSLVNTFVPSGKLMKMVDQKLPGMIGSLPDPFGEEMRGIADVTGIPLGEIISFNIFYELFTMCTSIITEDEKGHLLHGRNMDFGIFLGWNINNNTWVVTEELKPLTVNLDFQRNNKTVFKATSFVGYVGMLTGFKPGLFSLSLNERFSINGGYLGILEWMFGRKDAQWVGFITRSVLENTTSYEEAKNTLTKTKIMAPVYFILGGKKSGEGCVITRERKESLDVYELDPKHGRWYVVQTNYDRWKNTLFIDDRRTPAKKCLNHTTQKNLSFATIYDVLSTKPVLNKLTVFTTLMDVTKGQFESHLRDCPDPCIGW

Mtch1_IPI:IPI00137173.1 = Mtch1_IPI:IPI00137173.1 (mouse, UniProt Q791T5 1-389, limits assumed)
Idh3g_IPI:IPI00109169.1 = biological target: T4, Idh3g_IPI:IPI00109169.1 (mouse, UniProt P70404 40-393)
T4 sequence (looked up): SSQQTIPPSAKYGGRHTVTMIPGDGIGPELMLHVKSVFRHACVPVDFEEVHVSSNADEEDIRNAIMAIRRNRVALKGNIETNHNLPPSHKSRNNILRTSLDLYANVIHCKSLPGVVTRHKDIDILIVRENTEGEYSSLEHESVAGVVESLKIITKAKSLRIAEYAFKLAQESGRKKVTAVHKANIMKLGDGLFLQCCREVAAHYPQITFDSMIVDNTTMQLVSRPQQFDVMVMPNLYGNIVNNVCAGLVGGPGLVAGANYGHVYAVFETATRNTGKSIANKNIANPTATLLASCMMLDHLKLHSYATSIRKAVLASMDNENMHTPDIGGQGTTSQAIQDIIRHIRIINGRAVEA

Oxa1l_IPI:IPI00308001.1 = Oxa1l_IPI:IPI00308001.1 (mouse, UniProt Q8BGA9 1-433, limits assumed)

Measured: binding result

Sequence of Oxa1l_IPI:IPI00308001.1 (Q8BGA9 whole entry): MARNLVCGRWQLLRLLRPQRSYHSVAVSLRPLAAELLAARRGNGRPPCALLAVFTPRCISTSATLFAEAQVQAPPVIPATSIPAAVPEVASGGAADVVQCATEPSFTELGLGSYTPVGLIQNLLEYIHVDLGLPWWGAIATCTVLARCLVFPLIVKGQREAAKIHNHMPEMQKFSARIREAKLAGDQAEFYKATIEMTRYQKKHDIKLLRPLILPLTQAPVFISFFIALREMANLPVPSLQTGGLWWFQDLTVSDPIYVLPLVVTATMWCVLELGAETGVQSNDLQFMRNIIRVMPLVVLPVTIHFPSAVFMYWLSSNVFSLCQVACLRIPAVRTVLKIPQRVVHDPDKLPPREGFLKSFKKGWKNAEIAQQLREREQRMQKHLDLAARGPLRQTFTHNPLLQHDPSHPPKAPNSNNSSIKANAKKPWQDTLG
Sequence of Mtch1_IPI:IPI00137173.1 (Q791T5 whole entry): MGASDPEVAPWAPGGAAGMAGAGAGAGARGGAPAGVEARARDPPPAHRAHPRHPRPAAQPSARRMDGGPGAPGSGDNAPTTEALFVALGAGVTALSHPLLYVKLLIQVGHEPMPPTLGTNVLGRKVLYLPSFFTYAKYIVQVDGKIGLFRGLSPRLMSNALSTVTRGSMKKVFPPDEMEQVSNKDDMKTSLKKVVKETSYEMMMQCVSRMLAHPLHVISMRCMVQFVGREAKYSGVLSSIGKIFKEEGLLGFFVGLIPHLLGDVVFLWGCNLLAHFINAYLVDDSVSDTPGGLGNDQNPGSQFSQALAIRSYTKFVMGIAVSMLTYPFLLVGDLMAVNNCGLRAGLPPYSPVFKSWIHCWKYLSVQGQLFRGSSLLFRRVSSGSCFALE

B1: GST alone (other)
chain: not shown
notes: Negative control of the pull-downs; also called control GST
no binding: all assays above
